Hit rate of the full screen: of about 220,000 compounds, about 5,700 (2.6%) were called active. The inconclusive results got no clear call from the source; some entries with a clear call stand among them for comparison. The call rests on the fitted dose curve; in most records, active means well fitted inhibition curve with a large enough effect; inconclusive means small, poorly fitted or top-dose-only effect; inactive means no such curve, though single readings can be large or run the other way. Where the call is inconclusive, the potency comes from a doubtful curve fit.
These compounds were tested against Lysine-specific demethylase 5B (Homo sapiens) (UniProt Q9UGL1) (assay: Primary screen for KDM5B Histone Demethylases FDH-coupled qHTS). Details: FDH-coupled NADH fluorescence (FDH is formaldehyde dehydrogenase); series mostly up to 57.7 µM.
Method in brief: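 Coupled FDH/NAD⁺ fluorescence readout. KDM5BΔAP 200 nM final; compound titration, 10 min RT preincubation; substrate mix 12.5 µM H3K4me3, 25 µM 2-OG, 50 µM Fe(II), 100 µM ascorbate, 0.25 mM NAD⁺, 0.25 U/mL FDH; ΔRFU over 30 min.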
Further: nearly all actives have a fitted effect of over 70% in size.
Potency means the concentration at half of the fitted maximal effect; tags describe the fitted curve by direction and shape.

Sequence of UniProt Q9UGL1 (Q9UGL1 whole entry, looked up): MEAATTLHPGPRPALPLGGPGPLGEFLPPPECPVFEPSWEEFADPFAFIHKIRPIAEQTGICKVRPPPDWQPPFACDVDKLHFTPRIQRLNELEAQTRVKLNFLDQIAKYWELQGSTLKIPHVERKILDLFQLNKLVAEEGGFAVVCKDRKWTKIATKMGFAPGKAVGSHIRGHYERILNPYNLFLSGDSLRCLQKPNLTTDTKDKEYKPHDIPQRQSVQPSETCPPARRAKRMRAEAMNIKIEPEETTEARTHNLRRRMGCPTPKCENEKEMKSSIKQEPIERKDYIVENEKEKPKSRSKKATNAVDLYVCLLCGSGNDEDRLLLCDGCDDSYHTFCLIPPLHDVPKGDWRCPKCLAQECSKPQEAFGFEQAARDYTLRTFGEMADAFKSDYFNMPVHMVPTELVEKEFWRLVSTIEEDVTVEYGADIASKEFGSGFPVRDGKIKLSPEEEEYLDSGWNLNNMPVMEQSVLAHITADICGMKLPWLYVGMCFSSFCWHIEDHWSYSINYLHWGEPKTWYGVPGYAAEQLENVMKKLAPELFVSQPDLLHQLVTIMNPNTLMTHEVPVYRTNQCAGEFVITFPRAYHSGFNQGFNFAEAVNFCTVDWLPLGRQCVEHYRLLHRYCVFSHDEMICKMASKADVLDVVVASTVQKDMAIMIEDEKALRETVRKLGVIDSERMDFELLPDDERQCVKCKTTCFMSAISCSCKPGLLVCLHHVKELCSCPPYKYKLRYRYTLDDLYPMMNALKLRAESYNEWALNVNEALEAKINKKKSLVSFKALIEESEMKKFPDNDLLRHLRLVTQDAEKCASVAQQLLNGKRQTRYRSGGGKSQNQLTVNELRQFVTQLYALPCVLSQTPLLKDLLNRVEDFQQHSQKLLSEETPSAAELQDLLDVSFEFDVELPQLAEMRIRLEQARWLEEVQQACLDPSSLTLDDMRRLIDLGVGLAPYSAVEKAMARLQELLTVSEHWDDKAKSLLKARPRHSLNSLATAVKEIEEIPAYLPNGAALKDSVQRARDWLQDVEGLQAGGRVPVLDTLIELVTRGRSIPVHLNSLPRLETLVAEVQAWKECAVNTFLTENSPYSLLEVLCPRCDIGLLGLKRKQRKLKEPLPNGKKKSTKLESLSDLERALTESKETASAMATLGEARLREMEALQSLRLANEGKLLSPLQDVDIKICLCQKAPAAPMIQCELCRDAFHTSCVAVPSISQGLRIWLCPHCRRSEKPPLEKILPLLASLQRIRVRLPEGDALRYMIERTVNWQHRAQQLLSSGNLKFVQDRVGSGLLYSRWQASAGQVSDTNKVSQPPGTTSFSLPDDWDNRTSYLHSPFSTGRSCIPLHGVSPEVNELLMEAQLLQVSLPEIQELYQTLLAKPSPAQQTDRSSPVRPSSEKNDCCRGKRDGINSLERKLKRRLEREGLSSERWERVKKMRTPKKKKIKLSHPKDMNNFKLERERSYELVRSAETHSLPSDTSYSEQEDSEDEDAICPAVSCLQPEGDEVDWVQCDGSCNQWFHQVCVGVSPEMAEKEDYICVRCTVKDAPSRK

| SMILES | Potency |
| --- | --- |
| O=C(Nc1nc2ccccc2s1)c1ccc2c(c1)OCCN(CCC(F)(F)F)C2 | active: 31.6 µM |
| O=C1NCCCCCN(Cc2cccc(F)c2)[C@H]2CCC[C@@H]12 | inconclusive: 11.2 µM [inhibitor, partial curve, poor fit] |
| COc1ccccc1-c1cc(C(F)(F)F)nc(S(=O)(=O)CCCC(=O)Nc2cc(C)ccc2O)n1 | inconclusive: 28.2 µM [inhibitor, partial curve, poor fit] |
| CC(C)C[C@@H]1N[C@H](C(=O)NC2CCCC2)Cc2cn(CC3CC3)c3cccc1c23 | inconclusive: 50.1 µM [inhibitor, single point] |
| O=C1CC2(CCN(C(=O)c3ccccc3F)CC2)Oc2ccccc21 | active: 25.1 µM |
| Cc1cc(Br)c(OCc2ccc(C(=O)N/N=C/c3ccc[nH]3)cc2)c(Br)c1 | inconclusive: 25.1 µM [inhibitor, partial curve, poor fit] |
| COc1ccc(-c2cc(N3CCCC(NC(=O)c4ccc(OC)c(OC)c4)C3)n[nH]2)cc1 (configuration not stated) | inactive |
| CC(=O)c1ccc(NC(=O)Cn2nc(-n3nc(C)cc3C)ccc2=O)cc1 | inactive |
| CC(=O)c1cccc(NC(=O)c2ccc3c(=O)n(-c4cccc(Cl)c4)cnc3c2)c1 | inactive |
| CCc1ccc(-c2cc(C(=O)Nc3cccnc3)c3ccccc3n2)cc1 | inconclusive: 39.8 µM [inhibitor, single point] |
| O=S(=O)(Nc1ccc2oc3ccccc3c2c1)c1cccs1 | inconclusive: 39.8 µM [inhibitor, single point] |
| Cc1oc2ccc(O)c(CN(C)Cc3ccccc3)c2c1C(=O)Nc1cccc(Cl)c1C | inconclusive: 31.6 µM [inhibitor, single point] |
| c1ccc([C@@H]2CN(Cc3ccncc3)C[C@H]2COc2ccncc2)nc1 | inconclusive: 17.8 µM [inhibitor, partial curve, poor fit] |
| CCNC(=O)NC[C@@H]1C=C(C)[C@H](CC(=O)NCc2ccc(F)cc2)C[C@H]1C(C)C | inconclusive: 28.2 µM [inhibitor, partial curve, poor fit] |
| O=C(Nc1cccc(F)c1)N1Cc2[nH]cnc2C[C@H]1c1nc(-c2ccc3c(c2)OCO3)no1 | inconclusive: 12.6 µM [inhibitor, partial curve] |
| O=C(c1ccc2cc[nH]c2c1)N1CCc2c(nc3cc(-c4ccccc4)[nH]n3c2=O)C1 | active: 28.2 µM |
| COc1ccc(CCNC(=O)CCc2cn(Cc3ccc(C)cc3)c3ccccc23)cc1OC | inconclusive: 35.5 µM [inhibitor, single point] |
| CSc1ccc(NC(=O)c2ccc3c(c2)N(C)C2CCCN2C3=O)cc1 (configuration not stated) | inconclusive: 25.1 µM [inhibitor, partial curve, poor fit] |
| COc1cccc(-n2c(=O)c3sc4ccccc4c3n(CC(=O)Nc3ccccc3OC)c2=O)c1 | inconclusive: 8.91 µM [inhibitor, partial curve, poor fit] |
| Cc1ccc(-n2nc(CO)c(C(=O)NCCc3ccccc3)n2)cc1 | inconclusive: 1.12 µM [inhibitor, partial curve, poor fit] |
| O=S(=O)(c1ccccc1)c1nnn2c1nc(Nc1ccccc1)c1cc(Cl)ccc12 | inconclusive: 11.2 µM [inhibitor, partial curve, poor fit] |

| SMILES | Potency |
| --- | --- |
| COc1ccc(-c2cc(C(=O)N3CCCC3)ccn2)cc1F | active: 28.2 µM |
| O=C1CC(c2ccccc2)N(C(=O)CNC(=O)c2ccccn2)CCCCCN1 (configuration not stated) | active: 28.2 µM |
| Cc1ccc(-c2nc(S(=O)(=O)c3ccccc3)c(N(C)C)o2)cc1 | inconclusive: 39.8 µM [inhibitor, single point] |
| CC(C)c1noc(-c2cccn3c(CNC(=O)c4cccc(Cl)c4)nnc23)n1 | active: 22.4 µM |
| CCCCNC(=O)C1=CC(c2ccc3c(c2)OCO3)=NS(=O)(=O)N1C | inconclusive: 35.5 µM [inhibitor, single point] |
| Cc1cnc(C)c(N2CCN(Cc3nc(-c4sccc4C)oc3C)CC2)n1 | inconclusive: 28.2 µM [inhibitor, partial curve, poor fit] |
| CCc1ccc(N2CC(c3noc(-c4ccc(OC)nc4OC)n3)CC2=O)cc1 (configuration not stated) | active: 35.5 µM |
| O=C(O)C1(Cc2nc3ccccc3s2)CCCC1 | inactive |
| O=C(NCC(=O)N1CCCC(C(F)(F)F)C1)c1ccccc1F (configuration not stated) | inactive |
| COc1cccc(C(=O)NCC(=O)OCc2cc(=O)n3nc(C)sc3n2)c1 | inactive |
| CC(C)N1CC[C@H](c2nnc(-c3ccccc3F)o2)C1 | inconclusive: 31.6 µM [inhibitor, single point] |
| COc1ccc(C(Nc2ncc(C(F)(F)F)cc2Cl)c2nccn2C)cc1 (configuration not stated) | inactive |
| Cc1c(Cl)cccc1Nc1nc(N)nc(CSc2nc3ccccc3s2)n1 | inconclusive: 5.62 µM [inhibitor, partial curve, poor fit] |
| C/C(CC(C)C)=N\NC(=O)c1cccc(C)c1 | inactive |
| CCOC(=O)c1c(C)[nH]c(C)c1S(=O)(=O)N1CCC(C(=O)N2CCN(c3cc(C)ccc3C)CC2)CC1 | inconclusive: 5.01 µM [inhibitor, partial curve, poor fit] |
| CCC(C)NC(=O)c1cc2sc3ccccc3c2s1 (configuration not stated) | inactive |
| CCCc1cc(=O)n2[nH]c(NCc3ccc(CC)cc3)nc2n1 | inconclusive: 15.8 µM [inhibitor, partial curve, poor fit] |
| O=C1SC(Nc2ccc(Cl)cc2)C(=O)N1Cc1ccccc1 (configuration not stated) | inconclusive: 3.55 µM [inhibitor, partial curve, poor fit] |
| CCc1ccc(NC(=O)Cn2ncn3c(cc4ccccc43)c2=O)cc1 | inconclusive: 25.1 µM [inhibitor, partial curve, poor fit] |
| Cc1oc2c(c1C(=O)N1CCN(c3ccccc3)CC1)CN(Cc1ccccc1)CC2 | inconclusive: 22.4 µM [inhibitor, partial curve, poor fit] |
| COc1ccc(S(=O)(=O)c2c(Nc3cccc(Cl)c3)sc(C(=O)c3ccccc3)c2N)cc1 | inconclusive: 25.1 µM [inhibitor, partial curve, poor fit] |

— PubChem BioAssay AID1347165 (National Center for Advancing Translational Sciences (NCATS), 2019)
